This note sets out measurements from PubChem BioAssay AID1745853 (National Center for Advancing Translational Sciences (NCATS), 2022).

Values joined by “and” are separate entries in the source; they are usually repeats but may differ in a detail not shown here. Equal entries are not always repeated. The list shows a part of the results. The main result of the screen is listed elsewhere. These columns were measured beside it and carry no call.

Common to all, as to assay: Primary Screen for Target Class Profiling of Small Molecule Inhibitors of Methyltransferases
Assay [1] has as its target Glycine N-methyltransferase (Homo sapiens) (UniProt Q14749). The settings on record: purified enzyme, MTase-Glo SAH luminescence; measured here: GNMT inhibition; at 40 µM; stronger effect = lower value. In outline: (§1)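 Each enzyme was reacted with SAM and its substrate, with compounds tested once at 40 uM; SAH formed was read by MTase-Glo luminescence.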
In assay [2] the target is Guanidinoacetate N-methyltransferase (Homo sapiens) (UniProt Q14353). The conditions noted are these: purified enzyme, MTase-Glo SAH luminescence; measured here: GAMT inhibition; at 40 µM; stronger effect = lower value. The method, boiled down:
as §1

Assay [3] has as its target Histamine N-methyltransferase (Homo sapiens) (UniProt P50135). The conditions noted are these: purified enzyme, MTase-Glo SAH luminescence; measured here: HNMT inhibition; at 40 µM; stronger effect = lower value. In outline:
as §1

For assay [4], the target named is Nicotinamide N-methyltransferase (Homo sapiens) (UniProt P40261). The settings on record: purified enzyme, MTase-Glo SAH luminescence; measured here: NNMT inhibition; at 40 µM; stronger effect = lower value. The method, boiled down: as §1
Assay [5] concerns the target Phenylethanolamine N-methyltransferase (Homo sapiens) (UniProt P11086). The conditions noted are these: purified enzyme, MTase-Glo SAH luminescence; measured here: PNMT inhibition; at 40 µM; stronger effect = lower value. In outline:
as §1
On the % scale 0 is the no-effect control and ±100 the full control effect.

On to `CC(=O)N1CCCC(c2[nH]ccc2C(=O)N2CCN(c3ccccc3)CC2)C1` (stereo not given), for which the activity change, negative = inhibition in assay [1] was -5.09%; in assay [2], -1.39%; in assay [3], -1.53%; in assay [4] it was 2.23%; in assay [5], 0.617%.

Regarding `COC(=O)c1ccc(NC(=O)N2Cc3c(sc4c3CCCC4)-n3cccc3C2c2cccc(F)c2)cc1` (stereo not given), the activity change, negative = inhibition in assay [1] is -0.845%; in assay [2], 1.39%; in assay [3] it was 8.22%; in assay [4], -0.09%; in assay [5], 6.3%.

On to `C/C(=C\CCC(C)(C)O)CCO[C@@H]1O[C@H](CO[C@@H]2O[C@@H](C)[C@H](O)[C@@H](O)[C@H]2O)[C@@H](O)[C@H](O)[C@H]1O`, for which the activity change, negative = inhibition in assay [1] was 3.78%; in assay [2], 2.1%; in assay [3], 9.15%; in assay [4], -9.88%; in assay [5] it was -2.28%.

Turning to `CCOc1ccc(CN2C(=O)c3cc4sccc4n3CC2(C)C(=O)NC2CCCC(C)C2C)cc1` (stereo not given), the activity change, negative = inhibition in assay [1] is -2.89%; in assay [2] it was 1.33%; in assay [3], -1.2%; in assay [4], -1.61%; in assay [5] it was 1.12%.

In the case of `O=C(Cn1ccc2cc(S(=O)(=O)N3CCCCC3)ccc21)NCc1ccc(Cl)cc1`, the activity change, negative = inhibition was -4.07% in assay [1]; 4.44% in assay [2]; -0.638% in assay [3]; -5.32% in assay [4]; -2.75% in assay [5].

For the compound `C[C@@H]1O[C@@H](O[C@H]2[C@@H]3C=CO[C@@H](O[C@@H]4O[C@H](CO)[C@@H](O)[C@H](O)[C@H]4O)[C@@H]3[C@@]3(CO)O[C@@H]23)[C@H](O)[C@H](O)[C@H]1OC(=O)/C=C/c1ccc(O)cc1`, the activity change, negative = inhibition in assay [1] is -1.99%; in assay [2], -3.73%; in assay [3], 7.22%; in assay [4], -16.7%; in assay [5] it was -13.1%.

Regarding `CCc1ccc(-c2cc3n(n2)CC(C)(C(=O)NC2CCCCC2)N(Cc2ccccn2)C3=O)cc1` (stereo not given), the activity change, negative = inhibition is -7.11% in assay [1]; 3.98% in assay [2]; -2.72% in assay [3]; -10.7% in assay [4]; -4.28% in assay [5].

For the compound `COC(=O)c1cccc(NC(=O)N2Cc3c(sc4c3CCCC4)-n3cccc3C2c2ccccc2)c1` (stereo not given), the activity change, negative = inhibition in assay [1] was -1.83%; in assay [2], 3.53%; in assay [3], -1.63%; in assay [4], -3.7%; in assay [5], 0.626%.

For `Cc1ccccc1N1C(=O)c2ccc(-c3ccco3)n2CC1(C)C(=O)NC1CCCC1` (stereo not given), the activity change, negative = inhibition in assay [1] was -0.766%; in assay [2] it was 1.14%; in assay [3], -0.823%; in assay [4], -0.586%; in assay [5], -4.94%.

Turning to `O=C1CCN(C(=O)c2ccsc2)CCCC(C(=O)N2CCN(c3ccccn3)CC2)CCN1` (stereo not given), the activity change, negative = inhibition in assay [1] was -2.03%; in assay [2] it was 2.24%; in assay [3], 0.914%; in assay [4], 0.088%; in assay [5] it was -1.14%.

On to `CC1C(=O)OCC2=CC[N+]3([O-])CCC(OC(=O)C(C)(O)C1(C)O)C23` (stereo not given), for which the activity change, negative = inhibition in assay [1] is 0.02%; in assay [2] it was -2.27%; in assay [3], 8.14%; in assay [4] it was -13.6%; in assay [5], 1.97%.

On to `NS(=O)(=O)NCCNc1nonc1C(=Nc1ccc(F)c(Br)c1)NO`, for which the activity change, negative = inhibition in assay [1] was 1.48% and 3.66%; in assay [2], 6.71% and 7.86%; in assay [3] it was 8.61% and 4.12%; in assay [4] it was -3.75% and -10.2%; in assay [5] it was 7.69% and 0.544%.

In the case of `O=C([C@@H]1CCCN1C(=O)Cn1ccc2ccccc2c1=O)N1CCOCC1`, the activity change, negative = inhibition in assay [1] is -10.1%; in assay [2], -9.67%; in assay [3], -3.87%; in assay [4] it was -11.8%; in assay [5] it was -11.6%.

With `Nc1ncnc2c1ncn2[C@@H]1O[C@H](COP(=O)(O)OP(=O)(O)OP(=O)(O)OP(=O)(O)OC[C@@H]2O[C@H](n3cnc4c(N)ncnc43)[C@@H](O)[C@H]2O)[C@@H](O)[C@H]1O`, the values for the activity change, negative = inhibition in assay [3] and in assay [5] were 385% and 461%, respectively.

For the compound `CCc1ccc(NC(=O)N2CCn3c(C)ccc3C2CC)cc1` (stereo not given), the activity change, negative = inhibition is -11.3% in assay [1]; -0.819% in assay [2]; -9.33% in assay [3]; -8.01% in assay [4]; -8.8% in assay [5].

As for `OCc1nnc(C2CC(Nc3ncnc4ccccc34)C2)n1C1CC1` (stereo not given), the activity change, negative = inhibition in assay [1] is -7.31%; in assay [2], -5.66%; in assay [3], -1.06%; in assay [4], -18.8%; in assay [5], 7.31%.

Take `Cc1ncc(C(=O)N2CCC3(CC(=O)NC3=O)C2)c(-c2ccccc2)n1` (stereo not given): the activity change, negative = inhibition was 0.219% in assay [1]; 2.66% in assay [2]; 3.41% in assay [3]; 1.34% in assay [4]; 0.553% in assay [5].

Take `COc1cc2c(cc1O)C1(Cc3ccc4c(c3C1O)OCO4)[N+](C)([O-])CC2` (stereo not given): the activity change, negative = inhibition in assay [1] is -5.91%; in assay [2] it was 2.17%; in assay [3], 1.57%; in assay [4] it was -14%; in assay [5] it was 1.91%.

`CN(C)CCC[C@@]1(c2ccc(F)cc2)OCc2cc(C#N)ccc21`: the activity change, negative = inhibition in assay [2] is -4.79%; in assay [4], -16.3%; in assay [5], -12%.

`CN1CCCCCC(O)c2cc(C(=O)N3CCN(c4ccc(F)cc4)CC3)ccc21` (stereo not given): the activity change, negative = inhibition in assay [1] is -8.7%; in assay [2], -12.5%; in assay [3], -10.9%; in assay [4] it was -23.1%; in assay [5], -10.1%.

`CN1Cc2ccc(C(=O)Nc3ccc4cn[nH]c4c3)cc2OCC1=O`: the activity change, negative = inhibition in assay [1] was -13.5%; in assay [2], -1.27%; in assay [3] it was -9.59%; in assay [4] it was -6.84%; in assay [5], -10.6%.

In the case of `N[S+](=O)([O-])c1ccc2c(c1)OCCN(Cc1ccccc1Cl)C2`, the activity change, negative = inhibition was -1.9% in assay [1]; -0.43% in assay [2]; 0.146% in assay [3]; -21.7% in assay [4]; 0.668% in assay [5].

For `CC(O)/C=C/C1OC(=O)CC1Nc1ccc(C(=O)O)cc1` (stereo not given), the activity change, negative = inhibition in assay [1] is 0%; in assay [2], 5.71%; in assay [3] it was 10.9%; in assay [4] it was -4.86%; in assay [5], -0.08%.

As to `COC(=O)C[C@H]1C(C)(C)[C@H](OC(C)=O)C2CC3=C4CC(=O)O[C@@H](c5ccoc5)[C@]4(C)CCC3[C@@]1(C)C2=O` (stereo not given in full), the activity change, negative = inhibition was 0.933% in assay [1]; -1.85% in assay [2]; 6.02% in assay [3]; -14.9% in assay [4]; -8.64% in assay [5].

For `CC(C)N(Cc1cccc(N2CCN(S(=O)(=O)c3c(Cl)cccc3Cl)CC2)c1F)S(C)(=O)=O`, the activity change, negative = inhibition in assay [1] is -2.45%; in assay [2], -3.89%; in assay [3], -2.27%; in assay [4] it was -4.6%; in assay [5] it was -4.01%.

For the compound `Cc1noc(C)c1-c1cnc(Nc2ccncc2)c2c1CCO2`, the activity change, negative = inhibition in assay [1] was -13.4%; in assay [2], -14.3%; in assay [3] it was -67.6%; in assay [4], -30.7%; in assay [5], -15.8%.

In the case of `COc1ccc(OC)c(CNC(=O)c2cc3n(n2)CC(C)(C(=O)NCc2ccccc2)N(C)C3=O)c1` (stereo not given), the activity change, negative = inhibition in assay [1] was 3.4%; in assay [2], 4.12%; in assay [3], 5.35%; in assay [4], 2%; in assay [5] it was 4.03%.
